# Experimental data reported in the supplement of paper PMC8183993.
# Counter-ions that a name gives are not always drawn. ± gives the standard deviation of the averaged measurements. The full ranking holds about 3,100 compounds; the median of “mean cytoplasmic OPP incorporation (global translation) relative to DMSO” is about 100, and the lowest 2% start at about 56. Some of the results follow. Peptide text beside a SMILES is read from it.
# Test system: U2OS
# Assay: mean cytoplasmic OPP incorporation (global translation) relative to DMSO (% of DMSO); higher = more protein synthesis
# Settings: 10 µM; 24 h
# Method: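 Primary image-based screen in U2OS cells: compounds at 10 uM for 24 h, then a 1 h o-propargyl-puromycin (OPP) pulse, click labelling, and high-throughput microscopy. Mean cytoplasmic OPP intensity and nuclei count were normalised to DMSO wells within each plate (DMSO = 100) and averaged over triplicate plates.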
row,Structure (SMILES),mean cytoplasmic OPP incorporation
1,"N[C@@H](Cc1cc(I)c(O)c(I)c1)C(=O)O [3,5-Diiodo-L-tyrosine]",100
2,CN1C(C(=O)Nc2ccccn2)=C(O)c2sc(Cl)cc2S1(=O)=O [Lornoxicam (Xefo)],96.4
3,N#Cc1c(Oc2ccc(F)c(NC(=O)Cc3cccc(C(F)(F)F)c3)c2)ccc2nc(NC(=O)C3CC3)sc12,95.8
4,CCC[C@@H]1C[C@@H](C(=O)N[C@@H]([C@H]2O[C@H](SC)[C@H](O)[C@@H](O)[C@H]2O)[C@@H](C)O)N(C)C1 [Lincomycin hydrochloride],88.9
5,CCC[C@@H]1C[C@@H](C(=O)N[C@@H]([C@H]2O[C@H](SC)[C@H](O)[C@@H](O)[C@H]2O)[C@@H](C)O)N(C)C1 [Lincomycin HCl (Lincocin)],105
6,CO[C@H]1C[C@@H]2CC[C@@H](C)[C@@](O)(O2)C(=O)C(=O)N2CCCC[C@H]2C(=O)O[C@H]([C@H](C)C[C@@H]2CC[C@@H](OC(=O)C(C)(CO)CO)[C@H](OC)C2)CC(=O)[C@H](C)/C=C(\C)[C@@H](O)[C@@H](OC)C(=O)[C@H](C)C[C@H](C)/C=C/C=C/C=C/1C,96.4
7,CO[C@H]1C[C@@H]2CC[C@@H](C)[C@@](O)(O2)C(=O)C(=O)N2CCCC[C@H]2C(=O)O[C@H]([C@H](C)C[C@@H]2CC[C@@H](OC(=O)C(C)(CO)CO)[C@H](OC)C2)CC(=O)[C@H](C)/C=C(\C)[C@@H](O)[C@@H](OC)C(=O)[C@H](C)C[C@H](C)/C=C/C=C/C=C/1C [Temsirolimus (Torisel)],88.2
8,CCN(CC)CCN[C@@H](C(=O)OCCC(C)C)c1ccccc1 [Camylofine chlorhydrate],102
9,CN1CCCN=C1/C=C/c1cccs1 [Pyrantel tartrate],93.5
10,"CC/C=C\C/C=C\C/C=C\C/C=C\C/C=C\C/C=C\CCC(=O)O [Docosa-4Z,7Z,10Z,13Z,16Z,19Z-hexaenoic acid]",99.8
11,Cc1ccc(C(=O)Nc2cccc(C(F)(F)F)c2)cc1Nc1nc(-c2cccnc2)nc2c1cnn2C,145
12,CCOC(=O)N1c2ccc(C(F)(F)F)cc2[C@@H](N(Cc2cc(C(F)(F)F)cc(C(F)(F)F)c2)C(=O)OC)C[C@H]1CC,118
13,COc1ccc(-c2cc(=O)c3c(OC)c(OC)c(OC)c(OC)c3o2)cc1OC [Nobiletin (Hexamethoxyflavone)],114
14,CC[C@H](CO)Nc1nc(Nc2cccc(-c3ccccn3)c2)c2ncn(C(C)C)c2n1 [(R)-DRF053 dihydrochloride],104
15,CC(=O)Nc1c(I)c(C(=O)N[C@H]2C(O)O[C@H](CO)[C@@H](O)[C@@H]2O)c(I)c(N(C)C(C)=O)c1I (some centres undefined) [Metrizamide],107
16,"O=C(O)c1ccnc(C(=O)O)c1 [2,4-Pyridinedicarboxylic Acid]",94.2
17,"Cc1ccccc1N1CCN(S(=O)(=O)C[C@]23CC[C@H](C[C@@H]2NC(=O)[C@@H](N)CCS(C)(=O)=O)C3(C)C)CC1 [L-368,899 hydrochloride]",101
18,NC[C@H](O)c1ccc(O)c(O)c1 [Noradrenaline bitartrate monohydrate (Levophed)],102
19,CCN(CC)CCNC(=O)c1ccc(N)cc1 [Procainamide hydrochloride],95.5
20,Brc1ccc(C2CN3CCSC3=N2)cc1 [L-p-Bromotetramisole oxalate],94.5
21,c1cc(CN2CCCCC2)cc(OCCCNc2nc3ccccc3s2)c1 [Zolantidine dimaleate],118
22,CCc1cc2c(cc1CC)CC(NC[C@H](O)c1ccc(O)c3[nH]c(=O)ccc13)C2 [Indacaterol Maleate],110
23,CNCC(O)c1ccc(O)c(O)c1 (centres undefined) [Racepinephrine HCl],101

row,Structure (SMILES),mean cytoplasmic OPP incorporation
1,CCOC1O[C@H]([C@@H](COCc2ccccc2)OCc2ccccc2)[C@H](OCc2ccccc2)[C@H]1O (some centres undefined) [Tribenoside],107
2,Cc1c(-c2ccc(O)cc2)n(Cc2ccc(OCCN3CCCCCC3)cc2)c2ccc(O)cc12 [Bazedoxifene HCl],131
3,CCOC(=O)[C@@H](C)Oc1cccc2c(=O)n(CC(=O)Nc3ccc4c(c3)OCCO4)ccc12,93
4,CC(C)[N+]1(C)[C@@H]2CC[C@H]1C[C@@H](OC(=O)C(CO)c1ccccc1)C2 (some centres undefined) [Ipratropium bromide],96.6
5,Cc1ccc(-c2cc(C(F)(F)F)nn2-c2ccc(S(N)(=O)=O)cc2)cc1 [Celecoxib],108 ± 1.8
6,O=C(O)c1cccc(-c2noc(-c3ccccc3F)n2)c1 [PTC124 (Ataluren)],103
7,Nc1ccc(S(=O)(=O)Nc2nccs2)cc1 [Sulfathiazole],102
8,CC(CNC1CCCCC1)OC(=O)c1ccccc1 (centres undefined) [Hexylcaine hydrochloride],100
9,CN[C@H]1CC[C@@H](c2ccc(Cl)c(Cl)c2)c2ccccc21 [Sertraline hydrochloride],106
10,CN[C@H]1CC[C@@H](c2ccc(Cl)c(Cl)c2)c2ccccc21 [Sertraline],107
11,CN[C@H]1CC[C@@H](c2ccc(Cl)c(Cl)c2)c2ccccc21 [Sertraline HCl],114
12,C[C@@H]1CCC[C@H](C)N1NC(=O)c1ccc(Cl)c(S(N)(=O)=O)c1 [Clopamide],103
13,N#Cc1c(N(CC(=O)O)CC(=O)O)sc(C(=O)O)c1CC(=O)O [Strontium ranelate (Protelos)],96.6
14,CC[C@H]1OC(=O)[C@H](C)[C@@H](O[C@H]2C[C@@](C)(OC)[C@@H](O)[C@H](C)O2)[C@H](C)[C@@H](O[C@@H]2O[C@H](C)C[C@H](N(C)C)[C@H]2O)[C@](C)(O)C[C@@H](C)CN(C)[C@H](C)[C@@H](O)[C@]1(C)O [Azithromycin],111
15,CCn1c(N)c(C(=O)NC)c(=O)c2ccc(C#CC(C)(O)COC)nc21 (centres undefined),97.7 ± 0.15
16,CCOC(=O)C1=C(C)NC(=S)NC1c1cccc(O)c1 (centres undefined) [Monastrol],89.1
17,OCCn1cc(-c2ccc3c(c2)CC/C3=N\O)c(-c2ccncc2)n1,109
18,CCS(=O)(=O)c1cccc(-c2cc(C(=O)NC3CCN(C)CC3)c(C)c3[nH]c4ncc(C)cc4c23)c1,46.8
19,C1CCC(N=C(NC23CC4CC(CC(C4)C2)C3)N2CCOCC2)CC1,106
20,COC(=O)[C@H](Cc1ccccc1)NC(=O)[C@@H](N)CC(=O)O [Aspartame] (H-Asp-Phe-OMe),101
21,O=C(/C=C/c1ccc(O)c(O)c1)O[C@H](Cc1ccc(O)c(O)c1)C(=O)O [Rosmarinic acid],106 ± 3.8
22,CO/N=C(\C(=O)N[C@@H]1C(=O)N2C(C(=O)O)=C(COC(C)=O)CS[C@H]12)c1csc(N)n1 [Cefotaxime sodium salt],104
23,COC1CCC(C(=O)c2ccc3nc4c(cc3c2)CCCO4)CC1 (centres undefined),98.8

row,Structure (SMILES),mean cytoplasmic OPP incorporation
1,C=C[C@](C)(O)CC[C@@H]1[C@@]2(C)CCCC(C)(C)[C@@H]2CC[C@@]1(C)O [Sclareol],102
2,NC(=O)N/N=C/c1ccc(Oc2ccc(F)cc2)cc1,97.1
3,C[C@]12CC[C@@H]3c4ccc(O)cc4C[C@@H](CCCCCCCCC[S+]([O-])CCCC(F)(F)C(F)(F)F)[C@H]3[C@@H]1CC[C@@H]2O (some centres undefined) [Fulvestrant],114
4,C[C@]12CC[C@@H]3c4ccc(O)cc4C[C@@H](CCCCCCCCC[S+]([O-])CCCC(F)(F)C(F)(F)F)[C@H]3[C@@H]1CC[C@@H]2O (some centres undefined) [Fulvestrant (Faslodex)],113
5,C[C@]12CC[C@@H]3c4ccc(O)cc4C[C@@H](CCCCCCCCC[S+]([O-])CCCC(F)(F)C(F)(F)F)[C@H]3[C@@H]1CC[C@@H]2O (some centres undefined),122
6,COc1cc(CNC(=O)CCCC/C=C/C(C)C)ccc1O [Capsaicin],94.2 ± 8.7
7,Clc1ccc(C2(c3ccc(-c4cn[nH]c4)cc3)CCNCC2)cc1,129
8,NC1(Cc2ccc(Cl)cc2)CCN(c2ncnc3[nH]ccc23)CC1,93.7
9,Cc1cc(C(C)Nc2ccccc2)c2nc(N3CCOCC3)cc(=O)n2c1 (centres undefined),113
10,Clc1ccc2nsnc2c1NC1=NCCN1 [Tizanidine HCl],97.6
11,"Cc1cc(Nc2cc(N3CCN(C)CC3)nc(Sc3ccc(NC(=O)C4CC4)cc3)n2)n[nH]1 [VX-680 (MK-0457, Tozasertib)]",92.6
12,CC(C)Oc1ccc2c(=O)c(-c3ccccc3)coc2c1 [Ipriflavone],103
13,CC(=O)Nc1nnc(S(N)(=O)=O)s1 [Acetazolamide],101
14,CCCCOc1ccc(C(=O)Nc2ccc(F)cc2F)cc1,98
15,Nc1nc(OCc2cc(Br)cs2)c2[nH]cnc2n1 [Lomeguatrib],85.6
16,Cc1cc2cc3c(C)cc(=O)oc3c(C)c2o1 [Trioxsalen],104
17,CCCCOc1cc(C(=O)OCCN(CC)CC)ccc1N [Benoxinate hydrochloride],96.7
18,CC(C)c1ccccc1S(=O)(=O)c1cc(N)c2ncccc2c1[N+](=O)[O-],89.5
19,CCOC(=O)C1=C(N)Oc2ccc(Br)cc2C1C(C#N)C(=O)OCC (centres undefined),98.7 ± 2.9
20,CC#C[C@]1(O)CC[C@H]2[C@@H]3CCC4=CC(=O)CCC4=C3[C@@H](c3ccc(N(C)C)cc3)C[C@@]21C [Mifepristone (Mifeprex)],110
21,CC#C[C@]1(O)CC[C@H]2[C@@H]3CCC4=CC(=O)CCC4=C3[C@@H](c3ccc(N(C)C)cc3)C[C@@]21C [Mifepristone],109 ± 8.7
22,COc1cc(SC)ccc1C(=O)N1CCC(Cc2ccccc2)CC1,98
23,CC[C@@H]1C(=O)N(C)c2cnc(Nc3ccc(C(=O)N[C@H]4CC[C@H](N5CCN(CC6CC6)CC5)CC4)cc3OC)nc2N1C(C)C [BI6727 (Volasertib)],130
